Laboratory results published in publication PMC4336329 (PLoS ONE, 2015).
The whole screen tested about 310,000 compounds, of which about 14,000 (4.5%) showed an effect of 50% or more. The effect is printed as a negative number. This is one part of the list.

Target: human ether-à-go-go-related gene (hERG) potassium channel (human, UniProt Q12809)
Experiment: primary screen, population patch clamp on CHO cells stably expressing hERG
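Further: peak tail current of the secondary pulse compared with the same well before compound.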

human ether-à-go-go-related gene (hERG) potassium channel, sequence (Q12809 whole entry, looked up): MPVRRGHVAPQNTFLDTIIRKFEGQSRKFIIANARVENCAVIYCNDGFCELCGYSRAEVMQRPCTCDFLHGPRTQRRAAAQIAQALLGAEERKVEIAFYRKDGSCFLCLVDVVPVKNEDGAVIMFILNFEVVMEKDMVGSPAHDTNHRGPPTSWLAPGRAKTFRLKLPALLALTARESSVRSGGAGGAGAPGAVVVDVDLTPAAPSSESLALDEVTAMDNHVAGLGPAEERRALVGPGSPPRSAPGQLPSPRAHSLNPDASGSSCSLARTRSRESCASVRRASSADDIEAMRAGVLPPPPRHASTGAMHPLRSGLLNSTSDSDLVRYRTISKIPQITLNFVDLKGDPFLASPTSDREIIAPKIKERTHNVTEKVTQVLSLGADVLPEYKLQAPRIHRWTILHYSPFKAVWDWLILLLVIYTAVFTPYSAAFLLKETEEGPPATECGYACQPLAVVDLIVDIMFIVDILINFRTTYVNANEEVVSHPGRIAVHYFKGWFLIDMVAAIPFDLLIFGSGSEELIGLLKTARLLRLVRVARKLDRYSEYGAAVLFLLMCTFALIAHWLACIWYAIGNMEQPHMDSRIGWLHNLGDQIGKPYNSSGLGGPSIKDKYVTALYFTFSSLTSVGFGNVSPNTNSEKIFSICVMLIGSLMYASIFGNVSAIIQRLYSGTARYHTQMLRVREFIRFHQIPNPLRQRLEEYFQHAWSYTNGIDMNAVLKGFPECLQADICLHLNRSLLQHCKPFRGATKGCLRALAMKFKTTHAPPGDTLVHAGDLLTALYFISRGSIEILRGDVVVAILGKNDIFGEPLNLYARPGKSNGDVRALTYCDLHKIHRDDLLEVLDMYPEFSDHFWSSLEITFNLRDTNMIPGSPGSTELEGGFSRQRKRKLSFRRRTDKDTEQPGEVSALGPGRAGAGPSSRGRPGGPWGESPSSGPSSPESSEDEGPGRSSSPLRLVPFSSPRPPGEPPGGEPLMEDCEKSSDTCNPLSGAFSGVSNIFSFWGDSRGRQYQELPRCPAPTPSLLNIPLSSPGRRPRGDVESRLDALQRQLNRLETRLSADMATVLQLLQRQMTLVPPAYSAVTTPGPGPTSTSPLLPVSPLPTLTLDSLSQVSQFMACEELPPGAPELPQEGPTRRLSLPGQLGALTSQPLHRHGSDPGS

Going from `COc1ccccc1Oc1ccccc1[N+](=O)[O-]` to `COc1cc([N+](=O)[O-])cc(/C=N/NC(=O)c2cc(-c3ccccc3)nc3ccccc23)c1O`, the “hERG current change (%, negative = inhibition) at 10uM” value rises from 5.95% to 6.01%.

First: O=C(NCc1ccccn1)C1CCN(Cc2cccc(OCc3ccccc3)c2)CC1.O=C(O)C(=O)O
Second: O=[N+]([O-])c1ccc(NC2CCN(Cc3ccccc3)CC2)c2ccncc12
The “hERG current change (%, negative = inhibition) at 10uM” value of the first is lower: -35.7% for the first, 6.01% for the second.

Compared with `CCn1c(=O)cc(SCC(=O)Nc2ccc(OC)c(OC)c2)c2ccccc21`, `COc1ccc(-c2nc(SC(CC(=O)NCc3ccccc3)c3ccc(OC)c(OC)c3)n[nH]2)cc1` (centres unmarked) is higher in “hERG current change (%, negative = inhibition) at 10uM” value: -4.7% for the first, -0.421% for the second.

Going from `O=C(CN1CCOCC1)OCCCC1CCCCC1` to `COc1ccc(-c2nnc(SCC(=O)OC3CCCCC3)o2)cc1OC`, the “hERG current change (%, negative = inhibition) at 10uM” value falls from 6.58% to 0.881%.

Compared with `O=C1C=C2C=C[C@H]3C[C@]2(O1)[C@@H]1CCCCN13`, `Cc1c(C)c2ccc(OC(C)C(=O)N3CC[C@@]4(O)CCCC[C@H]4C3)cc2oc1=O` (some centres unmarked) is lower in “hERG current change (%, negative = inhibition) at 10uM” value: 6.92% for the first, -11.2% for the second.

First: Nc1nnc(SCC(=O)NNC(=O)c2ccc(F)cc2)s1
Second: O=C(Nc1nnc(SCc2cccnc2)s1)C1CC(=O)N(c2ccc(F)cc2)C1 (centres unmarked)
The “hERG current change (%, negative = inhibition) at 10uM” value of the first is lower: -2.71% for the first, -1.85% for the second.

Going from `CCCCNC(=O)CCn1nc(-c2ccccc2)ccc1=O` to `NS(=O)(=O)c1ccc(CCNC(=O)CSc2nc3ccccc3c(=O)n2CCN2CCOCC2)cc1`, the “hERG current change (%, negative = inhibition) at 10uM” value rises from -40% to 41.4%.

Going from `Cc1ccc(C)c(CN2CCSCC2)c1` to `Cc1ccc2[nH]cc(CCNC(=O)C3CCCCC3)c2c1`, the “hERG current change (%, negative = inhibition) at 10uM” value falls from 17.3% to 8.88%.

Going from `Cc1nc(C)c(C(=O)OCC(=O)Nc2ccccc2)s1` to `Cc1cccc(NC(=O)COc2ccccc2C(=O)NC(C)c2ccccc2)c1` (centres unmarked), the “hERG current change (%, negative = inhibition) at 10uM” value falls from -5.7% to -8.56%.

Compared with `Cc1cccc(NC(=O)C[n+]2cccc(C)c2)c1.[Cl-]`, `CC(=O)c1ccc(NC(=O)CCOc2cc(C)ccc2C)cc1` is lower in “hERG current change (%, negative = inhibition) at 10uM” value: -3.51% for the first, -8.08% for the second.

Compared with `CC(Sc1ccccc1)C(=O)N1CCN(S(=O)(=O)c2ccccc2F)CC1` (centres unmarked), `Cc1ccc(S(=O)(=O)N2CCN(C(=O)c3cccc(F)c3)CC2)cc1` is lower in “hERG current change (%, negative = inhibition) at 10uM” value: 0.493% for the first, -9.7% for the second.

Compared with `Cc1ccc(S(=O)(=O)N2CCN(S(=O)(=O)N(C)C)CC2)cc1`, `CCS(=O)(=O)N1CCCC(C(=O)NCc2cccnc2)C1` (centres unmarked) is lower in “hERG current change (%, negative = inhibition) at 10uM” value: 5.52% for the first, 1.43% for the second.

Going from `CCOc1ccc(CCNC(=O)c2nccnc2C(=O)O)cc1OCC` to `CCOc1ccccc1C(=O)N/N=C/c1ccoc1`, the “hERG current change (%, negative = inhibition) at 10uM” value falls from 20.7% to 8.57%.

Going from `CN1CCc2cc3c(c4c2C1CC41CCC(=NO)CC1)OCO3` (centres unmarked) to `COc1ccc(NC(=O)N2CCC3(CC2)OCCO3)c(OC)c1`, the “hERG current change (%, negative = inhibition) at 10uM” value rises from -7.57% to 7.69%.

Compared with `CCCCc1nc(SCC(=O)Nc2cc(C)on2)n[nH]1`, `Cc1cc2nc(C)n(CCCNC(=O)Nc3ccc(F)cc3)c2cc1C` is lower in “hERG current change (%, negative = inhibition) at 10uM” value: 25.1% for the first, -49.9% for the second.

Going from `CCN(CC)S(=O)(=O)c1cccc(NN=c2c(=O)c3ccccc3c2=O)c1` to `CN(C(=O)c1coc(=O)c2ccccc12)c1ccc(F)cc1`, the “hERG current change (%, negative = inhibition) at 10uM” value falls from 13.8% to 4.81%.

Compared with `CCOc1ccc(N(C(=O)Nc2ccccc2)C2=NCCC2)cc1`, `COc1ccc(OCC(O)CNC(=O)Nc2ccccc2)cc1` (centres unmarked) is higher in “hERG current change (%, negative = inhibition) at 10uM” value: -3.82% for the first, 17.5% for the second.

Going from `COc1ccc2cnn(CCOc3ccccc3)c(=O)c2c1OC` to `COc1ccc(OCC(=O)NNC(=O)c2c(-c3ccccc3Cl)noc2C)cc1`, the “hERG current change (%, negative = inhibition) at 10uM” value rises from -13.5% to 8.13%.

Going from `O=C(CCCn1c(=O)[nH]c2cc(Cl)ccc2c1=O)NCCC1=CCCCC1` to `COCc1c(C(=O)N2CCN(c3ncccn3)CC2)oc2ccccc12`, the “hERG current change (%, negative = inhibition) at 10uM” value falls from 10.9% to -7.68%.

First: COc1ccc(COc2cccc(C=O)c2)cc1
Second: CC(=O)Nc1ccc(NC(=O)CN2CCN(c3cccc(C(F)(F)F)c3)CC2)cc1
The “hERG current change (%, negative = inhibition) at 10uM” value of the first is higher: -6.86% for the first, -12.1% for the second.

Going from `Cc1ccc(C2C=C(c3ccc4c(c3)OCO4)Nc3ncnn32)cc1` (centres unmarked) to `COc1ccccc1N1CCN(C2CC(=O)N(c3ccccc3)C2=O)CC1` (centres unmarked), the “hERG current change (%, negative = inhibition) at 10uM” value rises from -12% to 24.1%.

Going from `[O-]/[N+](=C/c1ccco1)c1ccccc1` to `CC(=O)NC1C(=O)N(CC(C)C)c2ccccc21` (centres unmarked), the “hERG current change (%, negative = inhibition) at 10uM” value falls from 15.2% to -1.75%.
